# From PubChem BioAssay (NCATS)
# Several values for one entry are separate records, joined by “and”; a condition that tells them apart may be missing. Equal values may be shown once. Inconclusive results, whose numbers are uncertain, are shown with a selection of clear calls. A potency beside an inconclusive call is a rough fit, not a confirmed value. A structure can be active in one record and inactive in another. Activity calls are given as the source filed them. The call rests on the fitted dose curve; in most records, active means well fitted inhibition curve with a large enough effect; inconclusive means small, poorly fitted or top-dose-only effect; inactive means flat fitted curve, though single readings scatter.
# Experiment: P-glycoprotein substrates identified in KB-8-5-11 adenocarcinoma cell line, qHTS therapeutic library screen (AID 1346987); further: nearly all actives have a fitted effect of over 65% in size
# Conditions: KB-8-5-11 (P-gp overexpressing) viability, CellTiter-Glo, 72 h; series mostly up to 44.5 µM
# From the text: The ATP-binding cassette transporters P-glycoprotein (P-gp) is known to limit brain penetration of many chemotherapy drugs. […] As such, we developed a high-throughput screen (HTS) to identify substrates of P-gp from a series of chemical libraries including the National Center for Advancing Translational Sciences Pharmaceutical Collection NPC, 2,816 compounds), testing a total of 10,804 compounds, most of which have known mechanisms of action. We used the CellTiter-Glo viability assay to test library compounds against the parental KB-3-1 human cervical adenocarcinoma cell line and the colchicine-selected sub-line KB-8-5-11 that over-expresses P-gp. KB-8-5-11 cells were also tested in the presence of a P-gp inhibitor (tariquidar) to assess reversability of transporter-mediated resistance. Of the tested compounds, a total of 90 P-gp substrates were identified including 55 newly identified P-gp substrates. Substrates were confirmed using an orthogonal killing assay against HEK-293 cells transfected with P-gp. As exemplars, we confirmed that […] (cyclin-dependent kinase inhibitor); AT9283, (Janus kinase 2/3 inhibitor); ispinesib (kinesin spindle protein inhibitor); gedatolisib (PKI-587, phosphoinositide 3-kinase/mammalian target of rampamycin inhibitor); GSK-690693 (AKT inhibitor); and KW-2478 (heat shock protein 90 inhibitor) were substrates , and direct ATPase stimulation was assessed. ABCG2 was also found to confer high levels of resistance to AT9283, GSK-690693 and gedatolisib, while ispinesib, AT7519 and KW-2478 were weaker substrates.
# The HeLa derivative cell line, KB-3-1, and its colchicine-selected, P-gp-overexpressing subline, KB-8-5-11 were maintained in DMEM with 10% FCS and Pen/Strep with glutamine at 37 degree C in 5% CO2. For KB-8-5-11 cells, colchicine was added to the medium at a concentration of 100 ng/mL. HEK-293 cells transfected with empty vector (pcDNA) or vector containing human ABCB1 (MDR-19) or ABCG2 (R-5) have been described previously (Robey, Lin, Qiu, Chan & Bates, 2011) and were maintained in EMEM supplemented with 10% FCS, Pen/Strep and glutamine with 2 mg/ml G418 to select for the expression of the transporter. Cultures were confirmed to be free of mycoplasma infection using the MycoAlert Mycoplasma Detection Kit (Lonza, Walkersville, MD). For the screen, assay medium was identical to culture medium except for KB-8-5-11 where colchicine was excluded from the medium.
# All cell lines were plated into 1536-well plates at 500 cells/well in 5 uL media. Compounds were then pinned in dose-response using a 1536-head pin tool (Kalypsis, San Diego, CA) and plates were incubated at 37 degree C in 5% CO2 for an additional 72 h. CellTiter-Glo reagent (Promega) was dispensed into the wells, incubated for 5 min and luminescence was read on a ViewLux instrument (Perkin-Elmer). Cytotoxic compounds were defined as those that yielded a curve class of -1.1, -1.2, -2.1, -2.2, -2.3, or -2.4, a maximum response of >50% and an AC50 of < 10 uM. Cherry-picked hits from screening analysis were tested with both the KB pair of cell lines, and the pcDNA (empty vector control) and MDR-19 (P-gp overexpressing) pair were tested, in the absence and presence of tariquidar.
# Potency means the concentration at half of the fitted maximal effect; tags describe the fitted curve by direction and shape.
row,Structure (SMILES),Potency
1,Cc1cccc(CN2CCN(C(c3ccccc3)c3ccc(Cl)cc3)CC2)c1 (stereo not given),"inconclusive: 8.8 µM [inhibitor, partial curve, poor fit] and inconclusive: 23.5 µM [inhibitor, partial curve, poor fit]"
2,COc1cccc2c1C(=O)c1c(O)c3c(c(O)c1C2=O)C[C@@](O)(C(=O)CO)C[C@@H]3O[C@H]1C[C@H](N)[C@@H](O)[C@H](C)O1,"inconclusive: 4.18 µM [inhibitor, full curve]"
3,CCCCCN(CCC12CC3CC(CC(C3)C1)C2)C(=O)NCCCc1ccncc1,active: 16.4 µM
4,CN(C)c1nc(Cc2ccc(NC(=O)c3ccc(C(F)(F)F)cc3)cc2)nc(N(C)C)c1CC(=O)O,inactive
5,Cn1cc(-c2ccc3nnc(Sc4ccc5ncccc5c4)n3n2)cn1,inactive
6,CCCCOc1c(C(=O)c2c(F)cc(C)cc2F)cnc2n[nH]cc12,"inconclusive: 4.11 µM [inhibitor, full curve]"
7,Cc1cnc(Nc2ccc(N3CCN(C)CC3)cc2)nc1Nc1cccc(S(=O)(=O)NC(C)(C)C)c1,active: 11.8 µM and active: 7.31 µM
8,CC(=O)OCCN1C(=O)c2c(C)nc3ccc(S(=O)(=O)N4CCOCC4)cc3c2C1=O,inactive
9,COc1cc(C=CC(=O)O)ccc1O,inactive
10,CC[C@H](CC#N)OC(=O)N[C@@H](C)c1cccc(NC(=O)Nc2ccc(-c3cnco3)c(OC)c2)c1,active: 5.9 µM and active: 5.8 µM
11,COc1ccc2nc(S(=O)Cc3ncc(C)c(OC)c3C)[nH]c2c1 (stereo not given),"inconclusive: 10.3 µM [inhibitor, partial curve]"
12,C=CCn1c(=O)c2cnc(Nc3ccc(N4CCN(C)CC4)cc3)nc2n1-c1cccc(C(C)(C)O)n1,active: 3.72 µM and active: 5.8 µM
13,C[C@H]1COC2=C1C(=O)C(=O)c1c2ccc2c1CCCC2(C)C,"inconclusive: 33.2 µM [inhibitor, single point]"
14,O=C1CCC[C@@H]2[C@H]3CCC[N+]4([O-])CCC[C@@H](CN12)[C@@H]34 (stereo not given in full),inactive
15,COc1ccc(OC)c(-c2nnc3ccc(-c4ccc(OC)c(O[C@@H]5CCOC5)c4)nn23)c1,active: 4.61 µM
16,O=C(NCCS(=O)(=O)c1ccc(C(F)(F)F)cn1)c1ccc(Cl)cc1,"inconclusive: 37.2 µM [inhibitor, single point]"
17,CC(=O)[C@H]1CC[C@H]2[C@@H]3CC=C4C[C@@H](O)CC[C@]4(C)[C@H]3CC[C@]12C,"inconclusive: 18.4 µM [inhibitor, single point]"
18,CN(C)C(=O)c1ccc(S(=O)(=O)c2ccc(NC(=O)[C@@](C)(O)C(F)(F)F)c(Cl)c2)cc1,"inconclusive: 13.2 µM [inhibitor, partial curve, poor fit] and inconclusive: 13 µM [inhibitor, partial curve, poor fit]"
19,CCN(CC)CCNC(=O)c1ccc2nc(-c3ccccc3)c(-c3ccc(CN4CCC(n5c(=O)[nH]c6ccccc65)CC4)cc3)nc2c1,"inconclusive: 23.1 µM [inhibitor, single point]"
20,Clc1cccc(-n2nnnc2NCc2ccccc2Oc2ccccn2)c1Cl,"inconclusive: 18.7 µM [inhibitor, partial curve, poor fit] and inconclusive: 11.6 µM [inhibitor, partial curve, poor fit]"

row,Structure (SMILES),Potency
1,CC(=O)NC[C@H]1CN(c2ccc(N3CCOCC3)c(F)c2)C(=O)O1,"inconclusive: 14.6 µM [inhibitor, partial curve]"
2,CCN(CCO)CCCOc1ccc2c(Nc3cc(CC(=O)Nc4cccc(F)c4)[nH]n3)ncnc2c1,"inconclusive: 29.1 µM [inhibitor, partial curve, poor fit]"
3,O=C1CN2Cc3c(ccc(Cl)c3Cl)N=C2N1,"inconclusive: 16.6 µM [inhibitor, partial curve]"
4,COC(=O)C1=C(C)NC(C)=C(C(=O)OC(C)C)C1c1cccc2nonc12 (stereo not given),"inconclusive: 6.99 µM [inhibitor, partial curve, poor fit]"
5,CC(C)(O)CCc1ccc(OCc2cc(-c3cccc(OC(F)F)c3)c3ncccc3c2)cc1,"inconclusive: 16.4 µM [inhibitor, single point]"
6,CC1(C)CC(=O)c2c(C(F)(F)F)nn(-c3ccc(C(N)=O)c(NC4CCC(O)CC4)c3)c2C1 (stereo not given),"inconclusive: 0.517 µM [inhibitor, full curve]"
7,CC[C@H]1OC(=O)[C@H](C)[C@@H](O[C@H]2C[C@@](C)(OC)[C@@H](O)[C@H](C)O2)[C@H](C)[C@@H](O[C@@H]2O[C@@H](C)C[C@H](N(C)C)[C@@H]2O)[C@](C)(O)C[C@@H](C)C(=O)[C@H](C)[C@@H](O)[C@]1(C)O,inactive
8,COc1c(C)c2c(c(O)c1CC=C(C)CCC(=O)OCCN1CCOCC1)C(=O)OC2,active: 7.43 µM
9,CN(C)CCCNC(=O)c1ccc(-c2cc(O)c3ncccc3c2)cc1,"inconclusive: 18.7 µM [inhibitor, partial curve] and inconclusive: 29.1 µM [inhibitor, single point]"
10,COCCCOc1ccnc(CS(=O)c2nc3ccccc3[nH]2)c1C (stereo not given),"inconclusive: 9.2 µM [inhibitor, partial curve]"
11,O=S(=O)(NCCNCC=Cc1ccc(Br)cc1)c1cccc2cnccc12,"inconclusive: 14.8 µM [inhibitor, partial curve]"
12,CCc1c2c(nc3ccc(OC(=O)N4CCC(N5CCCCC5)CC4)cc13)-c1cc3c(c(=O)n1C2)COC(=O)[C@]3(O)CC,"inconclusive: 10.5 µM [inhibitor, partial curve]"
13,Cc1cccc(Nc2nc(N[C@@H]3CCCC[C@H]3N)ncc2C(N)=O)c1,"inconclusive: 33.2 µM [inhibitor, single point]"
14,CC(C)c1onc(-c2c(Cl)cccc2Cl)c1COc1ccc(C=Cc2cccc(C(=O)O)c2)c(Cl)c1,inactive
15,CC(C)(C)c1cc(NC(=O)Nc2ccc(-c3cn4c(n3)sc3cc(OCCN5CCOCC5)ccc34)cc2)no1,"inconclusive: 13 µM [inhibitor, partial curve]"
16,Cc1[nH]nc2ccc(-c3cncc(OC[C@@H](N)Cc4ccccc4)c3)cc12,active: 2.35 µM and active: 1.16 µM
17,N[C@@H](Cc1ccc(O)c(O)c1)C(=O)O,"inconclusive: 29.1 µM [inhibitor, single point]"
18,c1ccc(-c2oc3ncnc(NC[C@@H]4CCCO4)c3c2-c2ccccc2)cc1,active: 20.9 µM and active: 20.6 µM
19,CC(C=CC(=O)NO)=C[C@@H](C)C(=O)c1ccc(N(C)C)cc1,active: 1.05 µM
20,CC(C)c1nc(CN(C)C(=O)N[C@H](C(=O)N[C@@H](Cc2ccccc2)C[C@H](O)[C@H](Cc2ccccc2)NC(=O)OCc2cncs2)C(C)C)cs1,"inconclusive: 20.9 µM [inhibitor, partial curve] and inconclusive: 16.4 µM [inhibitor, single point]"
